Measured values reported in PubChem BioAssay AID2546 (National Center for Advancing Translational Sciences (NCATS), 2010).
Among all 310,000 compounds or so, about 11,000 (3.5%) were called active. Inconclusive means that the source gave no clear call. Such entries were picked first, then a sample of the others. Calls follow the shape of the dose curve; as a rule, active = well fitted inhibition curve with a large enough effect; inconclusive = small, poorly fitted or top-dose-only effect, or effect the other way; inactive = flat fitted curve, though single readings scatter. Potencies of inconclusive entries are left out as doubtful fits.

Experiment: VP16 counterscreen qHTS for inhibitors of ROR gamma transcriptional activity;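 also: Gal4-VP16 expression switched on by copper sulfate through the metallothionein promoter; nearly all actives have a fitted effect of over 50% in size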
Conditions: Drosophila S2 Gal4-VP16 UAS-luciferase, luminescence, 20 h; series mostly up to 53.6 µM
Potency is read from the fitted curve at half-maximal effect; tags tell the direction and shape of the fitted curve.

Question: For `Cc1cc([N+](=O)[O-])ccc1NC(=O)CCC(=O)N1CCCCC1`, which Potency is on record?
Answer: inactive

Question: Which Potency does the source give for `O=C(Nc1ccccc1Cl)c1ccccc1Oc1ccc(C(F)(F)F)cc1[N+](=O)[O-]` here?
Answer: inactive

Question: With `O=C(NNC(=O)c1cc2cc(Br)ccc2oc1=O)c1ccc(O)cc1O` as the compound, how does the Potency read?
Answer: inconclusive [inhibitor, partial curve]

Question: Which Potency does the source give for `CC(=O)c1c(C)[nH]c(C(=O)OCCCCN2C(=O)c3ccccc3C2=O)c1C` here?
Answer: active: 8.91 µM

Question: Which Potency does the source give for `CCOC(=O)C1CCN(S(=O)(=O)c2cc(Br)cc3c2N(C(=O)C2CC2)CC3)CC1` here?
Answer: inconclusive [inhibitor, partial curve]

Question: With `O=S(=O)(N/N=C/c1cccc(OC2CSC2)c1)c1ccccc1` as the compound, how does the Potency read?
Answer: inactive

Question: With `Cc1c(Br)c([N+](=O)[O-])nn1CC(=O)Nc1ccc(Cc2ccncc2)cc1` as the compound, how does the Potency read?
Answer: inconclusive [inhibitor, single point]

Question: Which Potency does the source give for `CC(c1ccon1)N(C)Cc1cn(C)nc1-c1cccc(Cl)c1` (stereo not given) here?
Answer: inactive

Question: With `Cc1ccc2[nH]cc(S(=O)(=O)c3ccc(F)cc3)c(=O)c2c1` as the compound, how does the Potency read?
Answer: inconclusive [inhibitor, single point]

Question: With `CCc1ccccc1N(C)C(=O)CCc1nc(-c2ccc(C)cc2)no1` as the compound, how does the Potency read?
Answer: inconclusive [inhibitor, single point]

Question: For `S=C(NCc1ccccn1)Nc1ccc(Br)cc1Cl`, which Potency is on record?
Answer: inconclusive [inhibitor, single point]

Question: Which Potency does the source give for `CCc1ccc(/C=C/C(=O)C2C(=O)c3ccccc3C2=O)cc1` here?
Answer: inconclusive [inhibitor, partial curve]

Question: Which Potency does the source give for `CC(C)[C@H]1c2ccc(F)cc2CC[C@@]1(CCN(C)CCCc1nc2ccccc2[nH]1)OC(=O)C1CC1` here?
Answer: inconclusive [inhibitor, single point]

Question: With `COc1cc(OC)nc(-n2ncc(Br)c(Br)c2=O)n1` as the compound, how does the Potency read?
Answer: active: 4.47 µM

Question: With `Cn1[nH]c(-c2ccccc2)c(/C=N/O)c1=O` as the compound, how does the Potency read?
Answer: active: 0.891 µM

Question: Which Potency does the source give for `CCOC(=O)c1c(NC(=O)c2ccc(Cl)s2)sc(C)c1C` here?
Answer: inactive

Question: Which Potency does the source give for `Cc1cc(O)c2c(c1)OC1(C)CCC3C(C)(C)CCCC34COC2C14` (stereo not given) here?
Answer: inconclusive [inhibitor, single point]

Question: For `CCCN1C=CC(=C/C=C(\C#N)C(=O)OCC)C=C1`, which Potency is on record?
Answer: inconclusive [inhibitor, single point]

Question: For `c1ccc2c(Nc3nc4c(s3)CCCC4)cccc2c1`, which Potency is on record?
Answer: inconclusive [inhibitor, single point]

Question: Which Potency does the source give for `COC(=O)CCCNC(=O)OCc1ccc([N+](=O)[O-])cc1` here?
Answer: inconclusive [inhibitor, partial curve]
